Screen size: about 420,000 compounds; about 64,000 (15%) were called active. The inconclusive results got no clear call from the source; some entries with a clear call stand among them for comparison. Calls follow the shape of the dose curve; as a rule, active = well fitted inhibition curve with a large enough effect; inconclusive = small, poorly fitted or top-dose-only effect; inactive = flat fitted curve, though single readings scatter. No potency is given beside an inconclusive call; the fits are too rough.
assay: qHTS for Inhibitors of human tyrosyl-DNA phosphodiesterase 1 (TDP1): qHTS in cells in absence of CPT; details: DT40 Tdp1-/- hTDP1 cells, no CPT, ATP luminescence, 48 h; series mostly up to 46.2 µM; also: nearly all actives have a fitted effect of over 55% in size
In short: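 Stably hTDP1-transfected Tdp1-null chicken DT40 cells were treated with library compounds minus camptothecin and grown for at least 48 hr at 37 °C, after which cellular ATP was quantified by luminescence.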
Potency is read from the fitted curve at half-maximal effect; tags tell the direction and shape of the fitted curve.

SMILES	Potency
COc1cc(CN2CCC(Cc3ccccc3)CC2)c([N+](=O)[O-])cc1OC	inconclusive [inhibitor, single point]
COc1ccc(CC(C)Nc2cccc(SC)c2)cc1 (configuration not stated)	inconclusive [inhibitor, single point]
O=C(Nc1nc2c(F)cccc2s1)c1ccc2c(c1)OCCO2	inconclusive [inhibitor, single point]
COc1ccc(C2C3=C(CC(C)(C)CC3=O)Nc3c2c(=O)[nH]c2nc(C)nn32)cc1 (configuration not stated)	inactive
CN(C)c1ccc(/C=C2\c3ccccc3-c3ccc(N(C)C)cc32)cc1	inconclusive [inhibitor, partial curve]
COc1ccc(CC(=O)NCCCc2ccccc2)cc1OC	inconclusive [inhibitor, single point]
CNS(=O)(=O)c1cccc(C(=O)OCC(=O)c2cc3ccccc3o2)c1	inconclusive [inhibitor, single point]
CCOc1ccc(CN(C)C(=O)c2ccc(S(=O)(=O)N(C)c3ccccc3OC)cc2)cc1	active: 10.3 µM
CN1CCN(S(=O)(=O)c2ccc(NC(=S)NC(=O)C3CCC3)cc2)CC1	inconclusive [inhibitor, full curve, poor fit]
O=C(N/N=C/c1ccc(-c2cccc(C(F)(F)F)c2)o1)c1cccc(F)c1	active: 14.1 µM
N#Cc1ccc(CN2CCN(C(=O)c3cc(C4CC4)nn3-c3ccccc3)CC2)cc1	active: 20.6 µM
COc1cc(COCC(O)CN2CCN(CCN3C(=O)c4cccc5cccc(c45)C3=O)CC2)cc(OC)c1OC (configuration not stated)	active: 11.6 µM
COc1ccc(N(C)S(=O)(=O)c2cccc(C(=O)NC3CCCCC3C)c2)cc1 (configuration not stated)	inconclusive [inhibitor, single point]
CCOC(=O)c1ccc(NC(=O)CN(C)S(=O)(=O)c2ccc(Br)s2)cc1	inconclusive [inhibitor, single point]
Cn1cccc1Cc1nnc(SCC(=O)Nc2cccc(F)c2)n1CCc1ccccc1	inconclusive [inhibitor, partial curve]
COC(=O)[C@@]12C[C@@H](CC(=O)NCc3cccc4ccccc34)C(=O)N(Cc3cccc4ccccc34)C1=CCC(C)(C)C2	inconclusive [inhibitor, single point]
CCN(CC)c1ccc(/C=N/NS(=O)(=O)c2ccc(C)c([N+](=O)[O-])c2)cc1	inconclusive [inhibitor, single point]
COc1ccc(NC(=O)C2=CC(c3ccc4c(c3)OCO4)=NS(=O)(=O)N2C)cc1OC	inconclusive [inhibitor, single point]
COc1cc(C(=O)NC2CCN(C)CC2)ccc1Nc1ncc2c(n1)N(C1CCC(O)CC1)CCC(=O)N2C (configuration not stated)	active: 16.4 µM
O=S(=O)(c1ccc(Cl)cc1)c1nc(-c2ccccc2F)oc1NCc1ccccc1	active: 18.4 µM
CCC1C(=O)c2ccccc2N(C)C1=O (configuration not stated)	inactive
OCCN(CCCn1c(C(F)(F)F)nc2ccccc21)c1nc(CN2CCCCC2)cs1	inactive
CC1CCN(S(=O)(=O)c2ccc(NC(=O)C3CC3)cc2)CC1	inactive
COc1ccc(C(=O)NC(=S)Nc2cccc(Cl)c2N2CCOCC2)cc1[N+](=O)[O-]	inconclusive [inhibitor, single point]

SMILES	Potency
O=C(NCCc1c[nH]c2ccccc12)C(=O)NCC(c1ccco1)N1CCN(c2ccccc2F)CC1 (configuration not stated)	active: 23.1 µM
Cc1cc(Br)c(NC(=O)COC(=O)C2CCCCC2)c(Br)c1	inactive
CCOC(=O)Cc1nnc(Nc2ccc(C)cc2C)c2ccccc12	inconclusive [inhibitor, single point]
CCc1ccc(-c2nc(CN3CCC(C(=O)NCc4ccco4)CC3)c(C)o2)cc1	inconclusive [inhibitor, single point]
O=C(NNS(=O)(=O)c1ccc2ccccc2c1)c1cccnc1	inactive
COc1ccccc1COCC(O)CNCC1(N2CCCCC2)CCCCC1 (configuration not stated)	inactive
O=C(NNC(=O)c1ccccn1)c1cccc([N+](=O)[O-])c1	active: 16.4 µM
Cc1cc(C)c(S(=O)(=O)NCCc2cc3ccc(C)c(C)c3[nH]c2=O)c(C)c1	active: 18.4 µM
CC(=O)c1ccc(NC(=O)CCc2c(C)nn(-c3ccc(N4CCOCC4)nn3)c2C)cc1	inconclusive [inhibitor, single point]
Cc1cccc(C(=O)NC(=S)N2CCN(C(=S)NC(=O)c3cccc(C)c3)CC2)c1	inconclusive [inhibitor, single point]
CCOC(=O)C1C(C(=O)OCC)C(C)(C)C1N(C)C (configuration not stated)	inactive
O=c1c2sc3ccccc3c2n(Cc2cccc(Cl)c2)c(=O)n1Cc1ccco1	active: 23.1 µM
CCc1ccccc1-n1c(SCC(=O)c2c(N)n(C3CC3)c(=O)[nH]c2=O)nnc1N1CCOCC1	inactive
Cc1ccc(N2CCN(C(=O)C3CCN(S(=O)(=O)c4ccc5c(c4)oc(=O)n5C)CC3)CC2C)cc1 (configuration not stated)	active: 3.66 µM
CC12CCC(c3c1nc1ccccc1[n+]3[O-])C2(C)C (configuration not stated)	active: 18.4 µM
CC(NC(=O)c1ccc(C#N)cc1)C1CC2CCC1C2 (configuration not stated)	inactive
COc1ccccc1CN1CC2(CCN(C(=O)c3cccc(F)c3)CC2)C1	inactive
Cc1nc2sccn2c(=O)c1S(=O)(=O)NC(C)c1ccccc1 (configuration not stated)	inconclusive [inhibitor, single point]
Cc1ccc(OCC(=O)NC2CCCc3ccccc32)c(C)c1 (configuration not stated)	inconclusive [inhibitor, single point]
CCOC(=O)c1ccccc1NC(=O)c1ccccc1SC	inconclusive [inhibitor, partial curve, poor fit]
Cc1cc(C)cc(-n2c(C)nc3cc(C(=O)O)ccc32)c1	inactive
Cc1ccc(COC(=O)c2cccc(S(=O)(=O)N3CCCCC3)c2)cc1	inconclusive [inhibitor, single point]
NC(=S)N/N=C1\CC(n2nnn(-c3cccc(Cl)c3)c2=S)C2COC1O2 (configuration not stated)	inconclusive [inhibitor, single point]
COc1ccc(CC(N)c2csc(NC(=O)NCc3ccccc3)n2)cc1 (configuration not stated)	inconclusive [inhibitor, single point]

SMILES	Potency
Cc1cc(NC(=O)c2cc(-c3cccc(Cl)c3)on2)n(-c2ccccc2)n1	inconclusive [inhibitor, partial curve]
COc1ccc(NC(=O)c2csc3c2CCCCC3)c(OC)c1	inconclusive [inhibitor, partial curve, poor fit]
O=S1(=O)CC2N=C(N(Cc3c(F)cccc3Cl)c3ccccc3F)SC2C1 (configuration not stated)	inconclusive [inhibitor, partial curve, poor fit]
Cc1cc(C)cc(C(=O)Nc2ccncc2)c1	inactive
Cn1cc(CC(=O)N2CCN(c3ccccc3F)CC2)c2ccccc21	inconclusive [inhibitor, single point]
CC(C)Oc1cccc(-c2nnc(SCC(=O)Nc3ccc4c(c3)OCCO4)n2N)c1	inactive
O=C(Nc1nccs1)C1CCCN1/C=C/C(=O)C(F)(F)F (configuration not stated)	inactive
Cc1ccc(N2NC(=O)/C(=C/c3ccc(-c4ccc(Cl)c(C(=O)O)c4)o3)C2=O)cc1C	inactive
CCc1ccc(C(O)(C(C)C)C(CN2CCOCC2)c2ccccc2)cc1 (configuration not stated)	active: 16.4 µM
CCOc1ccc2nc(N(CCCN(C)C)C(=O)c3ccc(S(=O)(=O)N4CCc5ccccc5C4)cc3)sc2c1	inconclusive [inhibitor, single point]
Cc1cccc(OCc2nc(CC(=O)Nc3ccc(C)c(C)c3)cs2)c1	active: 18.4 µM
CC(C)C(=O)OCC(=O)Nc1ccc(N=Nc2ccccc2)cc1	inactive
O=c1c2ccccc2c(-c2ccccc2)nn1-c1ccccc1	inconclusive [inhibitor, partial curve]
COc1cccc(CNC(=O)COc2cc3c(c4oc(=O)cc(C)c24)CCC(C)(C)O3)c1	active: 16.4 µM
COC(=O)N/N=C/c1cc(Br)ccc1O	inactive
COc1cccc(CNC(=O)c2cccc(NC(=O)C3=C(C)OCCS3)c2)c1	inconclusive [inhibitor, single point]
COC(=O)c1sc(N)c(C(=O)OC)c1CSc1nnnn1C	inactive
COc1ccc(C(C)(O)c2nc(-c3ccc4ccccc4c3)cs2)cc1 (configuration not stated)	inconclusive [inhibitor, single point]
CCC(=NNS(=O)(=O)c1ccc(C)cc1)c1ccc(OC)c(C)c1	inconclusive [inhibitor, single point]
Cc1ccc(C(=O)Nc2ccccc2C(N)=O)o1	inactive
CCCCCCCCN1C(=O)[C@H](CC(=O)NCCCOC)C[C@@]2(C(=O)OC)CCCCC=C12	active: 16.4 µM
O=C(Nc1cccc([N+](=O)[O-])c1)c1cc(S(=O)(=O)N2CCOCC2)cs1	inconclusive [inhibitor, single point]
Cc1nc2c(cnn2-c2ccccc2Cl)c(=O)n1-c1ccc(N2CCC(C)CC2)cc1	inconclusive [inhibitor, single point]
COc1cc(-c2cc3n(C)c(C)c(CCC(=O)O)c(=O)n3n2)cc(OC)c1OC	inactive

Reference: PubChem BioAssay AID686978 (National Center for Advancing Translational Sciences (NCATS), 2013)
